Test results from PubChem BioAssay AID2107 (National Center for Advancing Translational Sciences (NCATS), 2009).
Where “and” joins values, the source holds several entries; their conditions need not be identical. Identical values can stand only once. Among all 240,000 compounds or so, about 20 (0.008%) were called active. This list was built around the results that the source calls inconclusive (neither active nor inactive); the mix of calls is not that of the screen. The call rests on the fitted dose curve; in most records, active means well fitted inhibition curve with a large enough effect; inconclusive means small, poorly fitted or top-dose-only effect, or effect the other way; inactive means flat fitted curve, though single readings scatter. A potency beside an inconclusive call is a rough fit, not a confirmed value.

Biological target: Alpha-galactosidase A (Homo sapiens) (UniProt P06280)
Assay: qHTS Assay for Inhibitors and Activators of Human alpha-Galactosidase From Spleen Homogenate;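 on activity change, negative = inhibition: 0% = enzyme with vehicle and -100% = no enzyme basal signal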
Conditions: 4MU-alpha-Gal fluorescence, 40 min; activity change, negative = inhibition: at 80 µM (top of the series)
Summary of the method: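 Fluorogenic readout (Ex 365/Em 440 nm) of 4-methylumbelliferone released from 1 mM 4-MU-alpha-galactoside by spleen homogenate, 40 min at 37C, pH 5.0. Data normalized to no-enzyme and enzyme controls; Hill-equation AC50 from compound titrations.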
Potency means the concentration at half of the fitted maximal effect; tags describe the fitted curve by direction and shape.

UniProt P06280, sequence (P06280 whole entry, looked up): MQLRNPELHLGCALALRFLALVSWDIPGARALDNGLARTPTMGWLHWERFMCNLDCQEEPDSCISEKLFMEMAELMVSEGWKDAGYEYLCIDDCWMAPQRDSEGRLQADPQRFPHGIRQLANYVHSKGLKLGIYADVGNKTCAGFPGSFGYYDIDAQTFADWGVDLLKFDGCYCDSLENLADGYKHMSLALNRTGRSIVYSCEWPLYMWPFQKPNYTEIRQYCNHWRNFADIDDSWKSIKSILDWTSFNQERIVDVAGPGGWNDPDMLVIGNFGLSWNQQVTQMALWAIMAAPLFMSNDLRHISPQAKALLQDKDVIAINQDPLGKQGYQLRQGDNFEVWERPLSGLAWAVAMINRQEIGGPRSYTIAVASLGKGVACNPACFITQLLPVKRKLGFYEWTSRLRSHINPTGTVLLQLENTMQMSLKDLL

| SMILES | Potency | activity change, negative = inhibition |
| --- | --- | --- |
| COc1cc(/C=C2/C(=O)NN(c3cccc(C)c3)C2=O)ccc1OC(=O)c1ccco1 | inactive | – |
| COc1cc(C2C(C#N)=C(N)Oc3cc(N)ccc32)cc(OC)c1OC (stereo unspecified) | inactive | – |
| Cc1ccc(C)c(-n2c(=O)c(C#N)cc3c(=O)n4ccccc4nc32)c1 | inconclusive: 3.98 µM [activator, partial curve, poor fit] | – |
| CCc1ccc(S(=O)(=O)Nc2ccc(-c3nc4cccnc4s3)cc2)s1 | inconclusive: 35.5 µM [activator, partial curve] | – |
| O=C(Oc1ccc2c3c(c(=O)oc2c1)CCCC3)c1ccco1 | inconclusive: 35.5 µM [activator, partial curve] | – |
| O=C1c2c([N+](=O)[O-])cc([N+](=O)[O-])cc2S(=O)N1Cc1ccccc1 (stereo unspecified) | inconclusive: 50.1 µM [inhibitor, single point] | – |
| COc1cc(C2CC(=O)C3=C(C2)Nc2ncnn2C3c2cccs2)cc(OC)c1OC (stereo unspecified) | inconclusive: 35.5 µM [activator, single point] | – |
| Cc1ccc2[nH]c3c(=O)n(N)c(=O)[nH]c3c2c1 | inconclusive: 31.6 µM [activator, partial curve] | – |
| O=C(CSC1=NC(=O)C(Cc2ccccc2)C(=O)N1)Nc1ncc(Br)cc1Br (stereo unspecified) | inactive | – |
| O=C(O)c1ccc(N=C2SCC(=O)N2Cc2ccccc2)cc1 | inactive | – |
| CCN(CC)c1ccc(NC(=O)c2ccccc2)cc1S(=O)(=O)Nc1ccccc1OC | inactive | – |
| O=C(Oc1ccc2c3c(c(=O)oc2c1)CCC3)c1ccccc1[N+](=O)[O-] | inconclusive: 20 µM [activator, partial curve] | – |
| CC[C@H](C)[C@H](NC(=O)[C@@H](NC(=O)[C@@H](CC(=O)NO)Cc1ccccc1)[C@@H](C)CC)C(=O)O | inactive | – |
| COC(=O)C1=C(C(=O)OC)[C@@H]2N(C)c3ccc(OC)cc3[C@@]23C[C@@H](C(=O)OC)N(S(=O)(=O)c2ccc(C(F)(F)F)cc2)C3=N1 | – | inactive: 4.35% [at 17.5 µM] |
| N#Cc1c(C(F)(F)F)cc(C2CC2)[nH]c1=O | inconclusive: 31.6 µM [activator, single point] | – |
| Cc1cc(C(=O)Nc2cccc(/C=C/C(=O)O)c2)c(C)o1 | inconclusive: 11.2 µM [activator, single point] | – |
| COc1ccc(CNC(=S)NCc2ccc(OC)cc2)cc1 | inactive | – |
| CCCCn1c(N)c(S(=O)(=O)c2ccc(C)cc2)c2nc3ccccc3nc21 | inconclusive: 35.5 µM [activator, single point] | – |
| CCOC(=O)N1CCN([N+]([O-])=NOc2cc(O/N=[N+](\[O-])N(CC)CC)c([N+](=O)[O-])cc2[N+](=O)[O-])CC1 | inactive | – |
| CCC(C)C(NS(=O)(=O)c1ccc(C)cc1)C(=O)Oc1ccc2c3c(c(=O)oc2c1)CCC3 (stereo unspecified) | inconclusive: 39.8 µM [activator, partial curve] | – |
| CN(C)C=Nc1nc2ccccc2nc1N1CCCC1 | inconclusive: 20 µM [activator, partial curve] | – |
| O=C(O)C1CC(=O)N(c2ccc(OCc3ccccc3Cl)cc2)C1 (stereo unspecified) | inconclusive: 50.1 µM [inhibitor, single point] | – |

| SMILES | Potency | activity change, negative = inhibition |
| --- | --- | --- |
| COc1cc(NC(=O)c2cc3c(=O)n(C)c4ccccc4c3n2C)cc(OC)c1OC | inconclusive: 39.8 µM [activator, partial curve] | – |
| COCCNC(=O)/C=C/c1c(Cl)cccc1Cl | inconclusive: 3.55 µM [activator, full curve] | – |
| O=C(CSc1ncccc1-c1nc2ccccc2[nH]1)N1CCN(c2ccccc2F)CC1 | inconclusive: 11.2 µM [activator, single point] | – |
| O=C(NCCc1ccccc1)c1cnc2ccccn2c1=O | inconclusive: 28.2 µM [activator, partial curve] | – |
| CCOC(OCC)P(=O)(O)CCCNCc1ccc(Cl)c(Cl)c1 | inactive | – |
| Cc1ccc(S(=O)(=O)n2nc(OC(=O)C3CCCCC3)cc2N)cc1 | inconclusive: 7.08 µM [activator, single point] | – |
| O=C(CC1(O)C(=O)N(Cc2ccc3c(c2)OCO3)c2ccccc21)c1ccccc1 (stereo unspecified) | inactive | – |
| CCCCn1nc(C(=O)Oc2ccc3c(C)cc(=O)oc3c2)c2ccccc2c1=O | inconclusive: 31.6 µM [activator, partial curve] | – |
| COCCn1c(/C=C/c2ccccc2)nc2ccccc21 | inconclusive: 50.1 µM [activator, single point] | – |
| O=C(CSc1nc(O)cc(=O)n1-c1ccccc1)Nc1ccccn1 | inconclusive: 31.6 µM [inhibitor, partial curve, poor fit] | – |
| Cc1nc2cc(NCc3ccccc3O)ccc2n1Cc1ccccc1 | inactive | – |
| COC(=O)C(O)(CC(=O)Nc1ccc(OC)cc1)C(F)(F)F (stereo unspecified) | inactive | – |
| O=C(CSc1nc2cc(S(=O)(=O)N3CCOCC3)ccc2o1)Nc1c(F)cccc1F | inactive | – |
| N=C1C(c2nc3ccccc3s2)=C(O)CN1Cc1ccccc1 | inconclusive: 44.7 µM [inhibitor, single point] | – |
| COc1ccc(C2C3=C(CCCC3=O)Nc3nc(-c4cc(OC)c(OC)c(OC)c4)nn32)cc1OC (stereo unspecified) | inconclusive: 39.8 µM [activator, partial curve] | – |
| Cc1ccc(P(=Nc2ccccc2)(N2CCOCC2)N2CCOCC2)o1 | inactive | – |
| Cc1c(C)c2cc(Cl)c(O)c(CN3CCCCC3)c2oc1=O | inconclusive: 31.6 µM [activator, partial curve] | – |
| Cc1ccc(C2C(C=Nc3c(C)n(C)n(-c4ccccc4)c3=O)=C(c3ccccc3)Oc3ccccc32)cc1 (stereo unspecified) | inactive | – |
| COc1ccc(NC(=O)c2ccccc2[N+](=O)[O-])cc1 | inactive | – |
| COC(=O)C1=CNC=C(C(=O)OC)C1c1ccc(C(=O)OC)cc1 | inconclusive: 39.8 µM [activator, partial curve] | – |
| COC(=O)C1C2C=CC(C3CC23)C1C(=O)OCC(=O)c1ccc(OC)cc1 (stereo unspecified) | inconclusive: 7.08 µM [activator, single point] | – |
| C=CC[C@@H]1C=C[C@H](O/N=C(\C)CCN2CCc3nc(-c4ccccc4)c(-c4ccccc4)cc3C2)[C@H](CO)O1 | – | inactive: 4.06% [at 17.5 µM] |

| SMILES | Potency | activity change, negative = inhibition |
| --- | --- | --- |
| Cc1cc(C)n(-c2nc(NCCCO)c3c4c(sc3n2)CCCC4)n1 | inconclusive: 31.6 µM [activator, partial curve] | – |
| COc1cc(C)c(CNc2ccc(OC)c(OC)c2)cc1C | inconclusive: 22.4 µM [activator, partial curve] | – |
| COC(=O)c1ccc(C(=O)OC)c(=O)[nH]1 | inconclusive: 39.8 µM [activator, partial curve] | – |
| COc1ccc(NC(=O)C(C)N(c2ccc(C)cc2)S(C)(=O)=O)cc1 (stereo unspecified) | inconclusive: 56.2 µM [inhibitor, single point] | – |
| COc1cc(C(=O)NNc2nc3cc4c(cc3s2)OCO4)cc(OC)c1OC | inactive | – |
| COc1ccc2[nH]cc(CCNc3ccnc(-c4ccc5c(c4)OCO5)n3)c2c1 | inconclusive: 50.1 µM [inhibitor, single point] | – |
| Cn1c(C(C#N)C2=C(Cl)C(=O)N(c3ccccc3)C2=O)nc2ccccc21 (stereo unspecified) | inconclusive: 35.5 µM [activator, single point] | – |
| Cc1ccc(CCNC(=O)c2coc3nc4ccccc4nc23)cc1 | inconclusive: 20 µM [activator, single point] | – |
| COc1ccc(Cl)cc1-n1c(C)cc(C(=O)OCC(=O)N2CC(=O)Nc3ccccc32)c1C | inconclusive: 22.4 µM [inhibitor, partial curve] | – |
| CCCCn1c(N)c(NCc2ccccc2)c(=O)[nH]c1=O | inconclusive: 50.1 µM [activator, single point] | – |
| Cc1ccc(/C=N/NC(=O)c2ccccc2OCc2cccc(Br)c2)o1 | inconclusive: 50.1 µM [inhibitor, single point] | – |
| O=C(Oc1cc2oc(=O)c3c(c2cc1Cl)CCCC3)c1ccco1 | inconclusive: 15.8 µM [activator, partial curve] | – |
| O=C1CC(N2CCC(c3nc4ccccc4o3)CC2)C(=O)N1c1ccc(Cl)c(C(F)(F)F)c1 (stereo unspecified) | inactive | – |
| NC(=O)CSc1nc2cc3c(cc2c(=O)n1CCCC(=O)NCc1ccc2c(c1)OCO2)OCO3 | inconclusive: 28.2 µM [activator, single point] | – |
| Cc1cc(NS(=O)(=O)c2ccc(NC(=O)CSc3nc4ncccc4[nH]3)cc2)nc(C)n1 | inactive | – |
| CCOc1cccc(-c2nnc3sc(COc4ccccc4)nn23)c1 | inconclusive: 35.5 µM [inhibitor, partial curve] | – |
| COCC(=O)N1CCC[C@@]2(CCN(Cc3cc(C(F)(F)F)cc(C(F)(F)F)c3)C2)C1 | inconclusive: 8.91 µM [activator, partial curve] | – |
| Cc1ccc(S(=O)(=O)N2CCC(=O)N(C(COC(=O)Nc3ccccc3)Cc3ccccc3)CC2)cc1 (stereo unspecified) | inconclusive: 11.2 µM [inhibitor, single point] and inconclusive: 20 µM [activator, partial curve, poor fit] | – |
| Cc1ccc(-c2c[n+](CC(=O)c3ccc(Br)cc3)c3n2CCCCC3)cc1 | inconclusive: 50.1 µM [inhibitor, single point] | – |
| COc1ccc(OC)c(N(CC(=O)Nc2ccc3c(c2)OCO3)S(=O)(=O)c2ccccc2)c1 | inactive | – |
| Cc1ccc(-c2cc(-c3ccccc3)c(C#N)c(N)n2)o1 | inconclusive: 39.8 µM [activator, partial curve] | – |
| O=S1(=O)C2CC3C=CC2(CN1Cc1cccc(F)c1)O3 (stereo unspecified) | inactive | – |
